# The list shows a part of the results.
# B1: Tap1 (Sordaria macrospora), Q50IV4 (protein)
# chain: MSHHHHHHHHYTLHLRLINDTSDTLTLVEQTSWWGKNTIWSQVRSTGVHVLSMAASGSSGMLRFQTSKGDFFAVAVGVHNYKRWCDVLVDTADEAPLTKLHPKYYDDKDAKYQALWAQASEFEAKSKSGKTVRIKFYQADGNVLRATVEYL
# Columns and labels:
# Test in all cases: glycan array binding signal (z-score within array); higher = stronger binding
# Conditions in all cases: glycan notation: IUPAC condensed, linker removed
# [1] = molecular target: Neu5Ac(a2-6)Gal(b1-3)GlcNAc(b1-3)[Gal(b1-4)GlcNAc(b1-6)]Gal(b1-4)Glc
# Method in brief: (§1)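 Glycan array data came from 3228 arrays in the Consortium for Functional Glycomics database, and only arrays with an available protein sequence were kept. Glycan names were put into IUPAC-condensed notation, and columns mapping to the same glycan were averaged. The binding signal is a within-array Z-score, averaged across arrays of one protein sequence run at different concentrations or buffers and across linkers. A negative Z-score can be read as non-binding.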
# [2] = molecular target: Neu5Ac(a2-6)Gal(b1-4)Glc
# Method in brief: as §1
# [3] = molecular target: Neu5Ac(a2-6)Gal(b1-4)GlcNAc
# Method in brief: as §1
# [4] = molecular target: Neu5Ac(a2-6)Gal(b1-4)GlcNAc(b1-2)Man(a1-3)Man(b1-4)GlcNAc(b1-4)GlcNAc
# Method in brief: as §1
# [5] = molecular target: Neu5Ac(a2-6)Gal(b1-4)GlcNAc(b1-2)Man(a1-3)[Gal(b1-4)GlcNAc(b1-2)Man(a1-6)]Man(b1-4)GlcNAc(b1-4)GlcNAc
# Method in brief: as §1
# [6] = molecular target: Neu5Ac(a2-6)Gal(b1-4)GlcNAc(b1-2)Man(a1-3)[GlcNAc(b1-2)Man(a1-6)]Man(b1-4)GlcNAc(b1-4)GlcNAc
# Method in brief: as §1
# [7] = molecular target: Neu5Ac(a2-6)Gal(b1-4)GlcNAc(b1-2)Man(a1-3)[GlcNAc(b1-2)Man(b1-4)GlcNAc(b1-2)Man(a1-6)]Man(b1-4)GlcNAc(b1-4)GlcNAc
# Method in brief: as §1
# [8] = molecular target: Neu5Ac(a2-6)Gal(b1-4)GlcNAc(b1-2)Man(a1-3)[Man(a1-6)]Man(b1-4)GlcNAc(b1-4)GlcNAc
# Method in brief: as §1
# [9] = molecular target: Neu5Ac(a2-6)Gal(b1-4)GlcNAc(b1-2)Man(a1-3)[Neu5Ac(a2-6)Gal(b1-4)GlcNAc(b1-2)Man(a1-6)]Man(b1-4)GlcNAc(b1-4)GlcNAc
# Method in brief: as §1
# [10] = molecular target: Neu5Ac(a2-6)Gal(b1-4)GlcNAc(b1-2)Man(a1-6)Man(b1-4)GlcNAc(b1-4)GlcNAc
# Method in brief: as §1
# [11] = molecular target: Neu5Ac(a2-6)Gal(b1-4)GlcNAc(b1-2)Man(a1-6)[Gal(b1-4)GlcNAc(b1-2)Man(a1-3)]Man(b1-4)GlcNAc(b1-4)GlcNAc
# Method in brief: as §1
# [12] = molecular target: Neu5Ac(a2-6)Gal(b1-4)GlcNAc(b1-2)Man(a1-6)[GlcNAc(b1-2)Man(a1-3)]Man(b1-4)GlcNAc(b1-4)GlcNAc
# Method in brief: as §1
# [13] = molecular target: Neu5Ac(a2-6)Gal(b1-4)GlcNAc(b1-2)Man(a1-6)[Man(a1-3)]Man(b1-4)GlcNAc(b1-4)GlcNAc
# Method in brief: as §1
# [14] = molecular target: Neu5Ac(a2-6)Gal(b1-4)GlcNAc(b1-3)Gal(b1-3)GlcNAc
# Method in brief: as §1
# [15] = molecular target: Neu5Ac(a2-6)Gal(b1-4)GlcNAc(b1-3)Gal(b1-4)GlcNAc
# Method in brief: as §1
# [16] = molecular target: Neu5Ac(a2-6)Gal(b1-4)GlcNAc(b1-3)Gal(b1-4)GlcNAc(b1-3)Gal(b1-4)GlcNAc
# Method in brief: as §1
# [17] = molecular target: Neu5Ac(a2-6)Gal(b1-4)GlcNAc(b1-3)Gal(b1-4)[Fuc(a1-3)]GlcNAc(b1-3)Gal(b1-4)[Fuc(a1-3)]GlcNAc
# Method in brief: as §1
# [18] = molecular target: Neu5Ac(a2-6)Gal(b1-4)GlcNAc(b1-3)GalNAc
# Method in brief: as §1
# [19] = molecular target: Neu5Ac(a2-6)Gal(b1-4)GlcNAc6S
# Method in brief: as §1
# [20] = molecular target: Neu5Ac(a2-6)GalNAc
# Method in brief: as §1
# [21] = molecular target: Neu5Ac(a2-6)GalNAc(b1-4)GlcNAc
# Method in brief: as §1
# [22] = molecular target: Neu5Ac(a2-6)GlcNAc(b1-4)GlcNAc
# Method in brief: as §1
# [23] = molecular target: Neu5Ac(a2-6)GlcNAc(b1-4)GlcNAc(b1-4)GlcNAc
# Method in brief: as §1
# [24] = molecular target: Neu5Ac(a2-8)Neu5Ac
# Method in brief: as §1
# [25] = molecular target: Neu5Ac(a2-8)Neu5Ac(a2-3)Gal(b1-4)Glc
# Method in brief: as §1
# [26] = molecular target: Neu5Ac(a2-8)Neu5Ac(a2-3)[Gal(b1-3)GalNAc(b1-4)]Gal(b1-4)Glc
# Method in brief: as §1
# [27] = molecular target: Neu5Ac(a2-8)Neu5Ac(a2-3)[GalNAc(b1-4)]Gal(b1-4)Glc
# Method in brief: as §1
# [28] = molecular target: Neu5Ac(a2-8)Neu5Ac(a2-8)Neu5Ac
# Method in brief: as §1
# [29] = molecular target: Neu5Ac(a2-8)Neu5Ac(a2-8)Neu5Ac(a2-3)Gal(b1-4)Glc
# Method in brief: as §1
# [30] = molecular target: Neu5Ac(a2-8)Neu5Ac(a2-8)Neu5Ac(a2-3)[GalNAc(b1-4)]Gal(b1-4)Glc
# Method in brief: as §1
# [31] = molecular target: Neu5Ac(a2-8)Neu5Ac(a2-8)Neu5Ac(a2-8)Neu5Ac(a2-3)[GalNAc(b1-4)]Gal(b1-4)Glc
# Method in brief: as §1
# [32] = molecular target: Neu5Ac(b2-6)Gal(b1-4)GlcNAc
# Method in brief: as §1
# [33] = molecular target: Neu5Ac(b2-6)GalNAc
# Method in brief: as §1
# [34] = molecular target: Neu5Ac9Ac(a2-3)Gal(b1-3)GlcNAc
# Method in brief: as §1
# [35] = molecular target: Neu5Ac9Ac(a2-3)Gal(b1-4)GlcNAc
# Method in brief: as §1
# [36] = molecular target: Neu5Ac9Ac(a2-6)Gal(b1-4)GlcNAc
# Method in brief: as §1
# [37] = molecular target: Neu5Gc(a2-3)Gal(b1-3)GlcNAc
# Method in brief: as §1
# [38] = molecular target: Neu5Gc(a2-3)Gal(b1-3)[Fuc(a1-4)]GlcNAc
# Method in brief: as §1
# [39] = molecular target: Neu5Gc(a2-3)Gal(b1-4)Glc
# Method in brief: as §1
# [40] = molecular target: Neu5Gc(a2-3)Gal(b1-4)GlcNAc
# Method in brief: as §1
# [41] = molecular target: Neu5Gc(a2-3)Gal(b1-4)[Fuc(a1-3)]GlcNAc
# Method in brief: as §1
# [42] = molecular target: Neu5Gc(a2-6)Gal(b1-4)GlcNAc
# Method in brief: as §1
# [43] = molecular target: Neu5Gc(a2-6)GalNAc
# Method in brief: as §1
# [44] = molecular target: Neu5Gc(b2-6)Gal(b1-4)GlcNAc
# Method in brief: as §1
binder,measurement,setting,value
B1,glycan array binding signal (z-score),[1],-0.21
same,glycan array binding signal (z-score),[2],-0.23
same,glycan array binding signal (z-score),[3],-0.228
same,glycan array binding signal (z-score),[4],-0.211
same,glycan array binding signal (z-score),[5],-0.225
same,glycan array binding signal (z-score),[6],-0.209
same,glycan array binding signal (z-score),[7],-0.238
same,glycan array binding signal (z-score),[8],-0.18
same,glycan array binding signal (z-score),[9],-0.224
same,glycan array binding signal (z-score),[10],-0.238
same,glycan array binding signal (z-score),[11],-0.226
same,glycan array binding signal (z-score),[12],-0.234
same,glycan array binding signal (z-score),[13],-0.18
same,glycan array binding signal (z-score),[14],-0.233
same,glycan array binding signal (z-score),[15],-0.241
same,glycan array binding signal (z-score),[16],-0.241
same,glycan array binding signal (z-score),[17],-0.176
same,glycan array binding signal (z-score),[18],1.14
same,glycan array binding signal (z-score),[19],-0.094
same,glycan array binding signal (z-score),[20],-0.236
same,glycan array binding signal (z-score),[21],-0.241
same,glycan array binding signal (z-score),[22],-0.213
same,glycan array binding signal (z-score),[23],-0.241
same,glycan array binding signal (z-score),[24],-0.221
same,glycan array binding signal (z-score),[25],-0.242
same,glycan array binding signal (z-score),[26],-0.213
same,glycan array binding signal (z-score),[27],-0.24
same,glycan array binding signal (z-score),[28],-0.241
same,glycan array binding signal (z-score),[29],-0.246
same,glycan array binding signal (z-score),[30],-0.24
same,glycan array binding signal (z-score),[31],-0.222
same,glycan array binding signal (z-score),[32],-0.249
same,glycan array binding signal (z-score),[33],-0.232
same,glycan array binding signal (z-score),[34],-0.241
same,glycan array binding signal (z-score),[35],-0.212
same,glycan array binding signal (z-score),[36],-0.243
same,glycan array binding signal (z-score),[37],-0.23
same,glycan array binding signal (z-score),[38],-0.24
same,glycan array binding signal (z-score),[39],-0.225
same,glycan array binding signal (z-score),[40],-0.238
same,glycan array binding signal (z-score),[41],-0.233
same,glycan array binding signal (z-score),[42],-0.231
same,glycan array binding signal (z-score),[43],-0.236
same,glycan array binding signal (z-score),[44],-0.233
